Experimental data: the supplement of paper PMC8728848
The list shows a part of the results.

Experiments:
Assay in all cases: glycan array binding signal (z-score within array); higher = stronger binding
Conditions in all cases: glycan notation: IUPAC condensed, linker removed
[1] = molecular target: Neu5Ac(a2-6)Gal(b1-4)GlcNAc(b1-3)Gal(b1-4)GlcNAc(b1-3)GalNAc
Method in brief: (§1)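 Glycan array data came from 3228 arrays in the Consortium for Functional Glycomics database, and only arrays with an available protein sequence were kept. Glycan names were put into IUPAC-condensed notation, and columns mapping to the same glycan were averaged. The binding signal is a within-array Z-score, averaged across arrays of one protein sequence run at different concentrations or buffers and across linkers. A negative Z-score can be read as non-binding.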

[2] = molecular target: Neu5Ac(a2-6)Gal(b1-4)GlcNAc(b1-3)Gal(b1-4)GlcNAc(b1-3)[Neu5Ac(a2-6)Gal(b1-4)GlcNAc(b1-3)Gal(b1-4)GlcNAc(b1-6)]GalNAc
Method in brief: as §1

[3] = molecular target: Neu5Ac(a2-6)Gal(b1-4)GlcNAc(b1-3)Gal(b1-4)GlcNAc(b1-6)[Gal(b1-3)]GalNAc
Method in brief: as §1

[4] = molecular target: Neu5Ac(a2-6)Gal(b1-4)GlcNAc(b1-3)Gal(b1-4)[Fuc(a1-3)]GlcNAc(b1-3)Gal(b1-4)[Fuc(a1-3)]GlcNAc
Method in brief: as §1

[5] = molecular target: Neu5Ac(a2-6)Gal(b1-4)GlcNAc(b1-3)GalNAc
Method in brief: as §1

[6] = molecular target: Neu5Ac(a2-6)Gal(b1-4)GlcNAc(b1-3)[Neu5Ac(a2-6)Gal(b1-4)GlcNAc(b1-6)]GalNAc
Method in brief: as §1

[7] = molecular target: Neu5Ac(a2-6)Gal(b1-4)GlcNAc(b1-6)GalNAc
Method in brief: as §1

[8] = molecular target: Neu5Ac(a2-6)Gal(b1-4)GlcNAc(b1-6)[Gal(b1-3)GlcNAc(b1-3)]Gal(b1-4)Glc
Method in brief: as §1

[9] = molecular target: Neu5Ac(a2-6)Gal(b1-4)GlcNAc(b1-6)[Gal(b1-3)]GalNAc
Method in brief: as §1

[10] = molecular target: Neu5Ac(a2-6)Gal(b1-4)GlcNAc6S
Method in brief: as §1

Neu5Ac(a2-6)GalNAc = molecular target: Neu5Ac(a2-6)GalNAc
Method in brief: as §1

[11] = molecular target: Neu5Ac(a2-6)GalNAc(b1-4)GlcNAc
Method in brief: as §1

[12] = molecular target: Neu5Ac(a2-6)GalNAc(b1-4)GlcNAc6S
Method in brief: as §1

[13] = molecular target: Neu5Ac(a2-6)GlcNAc(b1-4)GlcNAc
Method in brief: as §1

[14] = molecular target: Neu5Ac(a2-6)GlcNAc(b1-4)GlcNAc(b1-4)GlcNAc
Method in brief: as §1

Neu5Ac(a2-8)Neu5Ac = molecular target: Neu5Ac(a2-8)Neu5Ac
Method in brief: as §1

[15] = molecular target: Neu5Ac(a2-8)Neu5Ac(a2-3)Gal(b1-3)GalNAc(b1-4)[Neu5Ac(a2-3)]Gal(b1-4)Glc
Method in brief: as §1

[16] = molecular target: Neu5Ac(a2-8)Neu5Ac(a2-3)Gal(b1-3)GalNAc(b1-4)[Neu5Ac(a2-8)Neu5Ac(a2-3)]Gal(b1-4)Glc
Method in brief: as §1

[17] = molecular target: Neu5Ac(a2-8)Neu5Ac(a2-3)Gal(b1-4)Glc
Method in brief: as §1

[18] = molecular target: Neu5Ac(a2-8)Neu5Ac(a2-3)Gal(b1-4)GlcNAc
Method in brief: as §1

[19] = molecular target: Neu5Ac(a2-8)Neu5Ac(a2-3)[Gal(b1-3)GalNAc(b1-4)]Gal(b1-4)Glc
Method in brief: as §1

[20] = molecular target: Neu5Ac(a2-8)Neu5Ac(a2-3)[GalNAc(b1-4)]Gal(b1-4)Glc
Method in brief: as §1

[21] = molecular target: Neu5Ac(a2-8)Neu5Ac(a2-8)Neu5Ac
Method in brief: as §1

[22] = molecular target: Neu5Ac(a2-8)Neu5Ac(a2-8)Neu5Ac(a2-3)Gal(b1-4)Glc
Method in brief: as §1

[23] = molecular target: Neu5Ac(a2-8)Neu5Ac(a2-8)Neu5Ac(a2-3)[Gal(b1-3)GalNAc(b1-4)]Gal(b1-4)Glc
Method in brief: as §1

[24] = molecular target: Neu5Ac(a2-8)Neu5Ac(a2-8)Neu5Ac(a2-3)[GalNAc(b1-4)]Gal(b1-4)Glc
Method in brief: as §1

[25] = molecular target: Neu5Ac(a2-8)Neu5Ac(a2-8)Neu5Ac(a2-8)Neu5Ac(a2-3)[GalNAc(b1-4)]Gal(b1-4)Glc
Method in brief: as §1

[26] = molecular target: Neu5Ac(a2-8)Neu5Gc(a2-3)Gal(b1-4)GlcNAc
Method in brief: as §1

[27] = molecular target: Neu5Ac(b2-6)Gal(b1-4)GlcNAc
Method in brief: as §1

Neu5Ac(b2-6)GalNAc = molecular target: Neu5Ac(b2-6)GalNAc
Method in brief: as §1

[28] = molecular target: Neu5Ac9Ac(a2-3)Gal(b1-3)GlcNAc
Method in brief: as §1

[29] = molecular target: Neu5Ac9Ac(a2-3)Gal(b1-4)GlcNAc
Method in brief: as §1

[30] = molecular target: Neu5Ac9Ac(a2-6)Gal(b1-4)GlcNAc
Method in brief: as §1

[31] = molecular target: Neu5Gc(a2-3)Gal(b1-3)GlcNAc
Method in brief: as §1

[32] = molecular target: Neu5Gc(a2-3)Gal(b1-3)[Fuc(a1-4)]GlcNAc
Method in brief: as §1

Neu5Gc(a2-3)Gal(b1-4)Glc = molecular target: Neu5Gc(a2-3)Gal(b1-4)Glc
Method in brief: as §1

[33] = molecular target: Neu5Gc(a2-3)Gal(b1-4)GlcNAc
Method in brief: as §1

[34] = molecular target: Neu5Gc(a2-3)Gal(b1-4)GlcNAc(b1-3)Gal(b1-4)GlcNAc(b1-2)Man(a1-3)[Neu5Gc(a2-3)Gal(b1-4)GlcNAc(b1-3)Gal(b1-4)GlcNAc(b1-2)Man(a1-6)]Man(b1-4)GlcNAc(b1-4)GlcNAc
Method in brief: as §1

[35] = molecular target: Neu5Gc(a2-3)Gal(b1-4)[Fuc(a1-3)]GlcNAc
Method in brief: as §1

[36] = molecular target: Neu5Gc(a2-6)Gal(b1-4)GlcNAc
Method in brief: as §1

Neu5Gc(a2-6)GalNAc = molecular target: Neu5Gc(a2-6)GalNAc
Method in brief: as §1

[37] = molecular target: Neu5Gc(a2-8)Neu5Ac(a2-3)Gal(b1-4)GlcNAc
Method in brief: as §1

[38] = molecular target: Neu5Gc(a2-8)Neu5Gc(a2-3)Gal(b1-4)GlcNAc
Method in brief: as §1

[39] = molecular target: Neu5Gc(a2-8)Neu5Gc(a2-3)Gal(b1-4)GlcNAc(b1-3)Gal(b1-4)GlcNAc
Method in brief: as §1

[40] = molecular target: Neu5Gc(a2-8)Neu5Gc(a2-6)Gal(b1-4)GlcNAc
Method in brief: as §1

[41] = molecular target: Neu5Gc(b2-6)Gal(b1-4)GlcNAc
Method in brief: as §1

B1: PX9937J-pdi-523-26-523 (Parabacteroides distasonis) (protein)
chain: EPVSSISDANYWKSPDLFKAFNIGLHGLLRSQSSYNIFVLGEPRSDIYGDQPFGGEATQGVERFSYNTINAEFTGISNFANFYTTLNQINLMIRRTNETDLLGEAEKNYYLGQAYGLRAYIYFHLLRSWGDVIITTEPTLGSELDISHLDKAASPASEVMDLIKKDIDASEKAFGGDYSYKQGKCYWSKPATLMLKGEVYLWSGRQMGGGTGDYTVAKTALQDLQQNGNLKLQEKFTDVFSFNNKENSEMIFALHSGKEDDFMMWRDYNWRNNMVPQREYMAGYCDETGTPFLEIPGYNLQGLMRYQVKKDHYLKSFREGDTRLKGTLKAVYKKHEDGTLEYIAPIQYKFQGTTLEGSNERSWYDDYPIYRYADALLLLAEAKALLGEDPSTEINAVRERAYGSEYFNAHKNEVAYPNDKGSFYNDNPFEAGDENVMEAILKERLREFFFEGKRWYDLRRFGKDYVLKYTTAQESRLLWPINEGALTNNPALKQTPGY
For B1, the “glycan array binding signal (z-score)” value [1] was -0.443, the “glycan array binding signal (z-score)” value [2] was -0.472 and the “glycan array binding signal (z-score)” value [3] was -0.753. For the same binder, the “glycan array binding signal (z-score)” value [4] was 0.331, the “glycan array binding signal (z-score)” value [5] was -0.339 and the “glycan array binding signal (z-score)” value [6] was -0.711. The “glycan array binding signal (z-score)” value [7] was -0.246, the “glycan array binding signal (z-score)” value [8] was 0.146 and the “glycan array binding signal (z-score)” value [9] was 0.505. The “glycan array binding signal (z-score)” value [10] was -0.33, the “glycan array binding signal (z-score)” value (Neu5Ac(a2-6)GalNAc) was -0.189 and the “glycan array binding signal (z-score)” value [11] was -0.419. The “glycan array binding signal (z-score)” value [12] was -0.03, the “glycan array binding signal (z-score)” value [13] was -0.58 and the “glycan array binding signal (z-score)” value [14] was -0.178. For the same binder, the “glycan array binding signal (z-score)” value (Neu5Ac(a2-8)Neu5Ac) was -0.218, the “glycan array binding signal (z-score)” value [15] was -0.149 and the “glycan array binding signal (z-score)” value [16] was -0.08. The “glycan array binding signal (z-score)” value [17] was -0.56, the “glycan array binding signal (z-score)” value [18] was -0.261 and the “glycan array binding signal (z-score)” value [19] was -0.125. The “glycan array binding signal (z-score)” value [20] was 0.126, the “glycan array binding signal (z-score)” value [21] was -0.094 and the “glycan array binding signal (z-score)” value [22] was -0.364. The “glycan array binding signal (z-score)” value [23] was -0.023, the “glycan array binding signal (z-score)” value [24] was -0.5 and the “glycan array binding signal (z-score)” value [25] was -0.024. The “glycan array binding signal (z-score)” value [26] was 9.17, the “glycan array binding signal (z-score)” value [27] was 0.532 and the “glycan array binding signal (z-score)” value (Neu5Ac(b2-6)GalNAc) was -0.668. The “glycan array binding signal (z-score)” value [28] was -0.551, the “glycan array binding signal (z-score)” value [29] was -0.44 and the “glycan array binding signal (z-score)” value [30] was 0.254. For the same binder, the “glycan array binding signal (z-score)” value [31] was -0.523, the “glycan array binding signal (z-score)” value [32] was -0.62 and the “glycan array binding signal (z-score)” value (Neu5Gc(a2-3)Gal(b1-4)Glc) was -0.703. For the same binder, the “glycan array binding signal (z-score)” value [33] was -0.198, the “glycan array binding signal (z-score)” value [34] was -0.317 and the “glycan array binding signal (z-score)” value [35] was -0.568. The “glycan array binding signal (z-score)” value [36] was -0.357, the “glycan array binding signal (z-score)” value (Neu5Gc(a2-6)GalNAc) was 0.093 and the “glycan array binding signal (z-score)” value [37] was -0.332. For the same binder, the “glycan array binding signal (z-score)” value [38] was -0.415, the “glycan array binding signal (z-score)” value [39] was -0.355 and the “glycan array binding signal (z-score)” value [40] was -0.389. The “glycan array binding signal (z-score)” value [41] was -0.221.
